Measurements taken from the RNAGym collection of RNA variant scans (doi:10.1093/nar/gkz1192).
The source gives no read counts; variants with many changes may rest on few reads.

B1: CPEB3 Ribozyme (parent)
chain: UAACAGGGGGCCACAGCAGAAGCGUUCACGUCGCAGCCCCUGUCAGAUUCUGGUGAAUCUGCGAAUUCUGCUGUAUAUCUC

Variants of: B1
Test: self-cleavage, relative activity (ratio to wild type); higher = more cleavage; in vitro, sequencing
How it was run: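 Relative activity compares each variant's cleaved/total read fraction with that of the unmutated ribozyme. To get these fractions, barcoded CPEB3 ribozyme libraries from rounds of error-prone PCR were transcribed with T7 RNA polymerase for 5 hours at 37°C and then given 15 min of DNase I treatment before EDTA was added. The RNAs were reverse transcribed with template switching and sequenced on Illumina, and DNA sequencing linked barcodes to variants. A minimum of 5 reads applied, and three batches were averaged.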
With G16A U25C U54C A57C the self-cleavage was 0.16. In the case of G16U U31C U41C U54A U58A U72C, the self-cleavage is reported as 0.1. A15U U41C A45U gave a self-cleavage of 0.51. G16A A47G C62U showed a self-cleavage of 0.33. Variant G16U A18C A20U has a self-cleavage of 0.18. With A15U C38A U54A the self-cleavage was 0.13. With A15U C38A U43C A56C C59A the self-cleavage was 0.25. Variant A15U U26A C34G U76C has a self-cleavage of 0.11. Work on C17A A28G U31A U41C U60A yielded a self-cleavage of 0.05. C17A A21G A35G U54A U67C showed a self-cleavage of 0.05. A15U U25C A28C U31C A64G U80C showed a self-cleavage of 0.07. For C17G A21U A56G, the self-cleavage was 0.2. Work on G16A U26C A56G yielded a self-cleavage of 0.21. In the case of A15U U25A U66C U67C, the self-cleavage is reported as 0.13. Variant G16U U25C A45G U66C has a self-cleavage of 0.07. Work on A15U U25A U31C U43G U78A yielded a self-cleavage of 0.29. G16C U25C G33U A57G G73C gave a self-cleavage of 0.17. In the case of G16A U51A U76C U80A, the self-cleavage is reported as 0.86. Variant A15U G16A A35G has a self-cleavage of 0.38. A15U U26C U54C gave a self-cleavage of 0.23. For A15U U31A A35G U43C A45G, the self-cleavage was 0.9. With A15U U26A C34G A45G A64G the self-cleavage was 0.08. A15U U48C A56G G70A gave a self-cleavage of 0.69. C17A A35U A56G gave a self-cleavage of 0.17. A15U C37U U43C U76C showed a self-cleavage of 0.34. With A15U U49C A56G U74C U80C the self-cleavage was 0.71. Variant A15U G63A U66C has a self-cleavage of 0.14. In the case of C17U A18G G24A U25C U41A U66G, the self-cleavage is reported as 0.05. G16A G30U C40A U69A U72A U74C showed a self-cleavage of 0.07. G16A U51C G63C A64C showed a self-cleavage of 0.13. Variant A15U U26C C40U U54C A65G A77G has a self-cleavage of 0.16. Variant G16U U49C A56G U58C A64G has a self-cleavage of 0.1. Work on A15U U48C A77G yielded a self-cleavage of 0.22. Work on A15U G52U A57G U72A A75U yielded a self-cleavage of 1.14. A15U U60A U69A showed a self-cleavage of 0.17. With A15U U49C A64G the self-cleavage was 0.15. In the case of A15U U31C C39A U78C, the self-cleavage is reported as 0.09. Work on A15U U26C C32G A56G yielded a self-cleavage of 0.23. With A15U U26C U78C the self-cleavage was 0.37. Variant A15U U31C A47U A77G has a self-cleavage of 0.16. Work on C17G A18G U25C C34G G36A U66C C79U yielded a self-cleavage of 0.29. In the case of A15U C38A A56C C59A U69A U78C, the self-cleavage is reported as 0.1. Variant C17A U25C U26A has a self-cleavage of 0.44. Variant A15U G33A U43C A45G has a self-cleavage of 0.23. Work on G16A A28G U41A U60C yielded a self-cleavage of 0.08. G16A A20G U41C showed a self-cleavage of 0.13. Variant A15U G36C U48C A65G has a self-cleavage of 0.06. Work on A15U U31C A35G U43C U58A yielded a self-cleavage of 0.19. Variant C17A G70A U78C has a self-cleavage of 0.34. Work on A15U U31C G36A yielded a self-cleavage of 0.13. Variant A15U U31A U43G U66C has a self-cleavage of 0.05. C17A A18C U31A gave a self-cleavage of 0.09. In the case of C17A U25C A47G A57U U80C, the self-cleavage is reported as 0.07. C17G A21G U58C gave a self-cleavage of 0.06. Variant A15U U25C U41C U54C U67C U78C has a self-cleavage of 0.04. For A15U U41A C68U, the self-cleavage was 0.26. G16A A28G U72A A77C U80C showed a self-cleavage of 0.33. For G16C C44A U48G, the self-cleavage was 0.27. In the case of C17A U67C A75U, the self-cleavage is reported as 0.07. For G16A A20G U25C, the self-cleavage was 0.19. C17A U41C U48C A64U U80C gave a self-cleavage of 0.11. C17A A18U U26G U43C U49C U54C showed a self-cleavage of 0.14. C17A U69C U72A showed a self-cleavage of 0.08. With C17G U41A U78A the self-cleavage was 0.41. With G16A U26C U49A U58A A75G the self-cleavage was 0.1. G16U A18G G36A U41C C50U C68A U72A gave a self-cleavage of 0.05. C17A G22A A56G U69C A75G U78C gave a self-cleavage of 0.06. In the case of A15U U51C A56G U67C U72A, the self-cleavage is reported as 0.15. In the case of C17A U72C U80C, the self-cleavage is reported as 0.33. For G16A U25A U51A U54A, the self-cleavage was 0.06. G16U A45G C81U gave a self-cleavage of 0.19. A15U U60C U80C showed a self-cleavage of 0.3. With G16U A18G U72C the self-cleavage was 0.22. G16C A20G G33A C50A U54G U58C C79U gave a self-cleavage of 0.01. C17A A64G U66A gave a self-cleavage of 0.16. In the case of C17A U41A U48C U76A, the self-cleavage is reported as 0.07. Work on A15U C59A G70U yielded a self-cleavage of 0.13. In the case of A15U U54C A57C A64G, the self-cleavage is reported as 0.13. For G16A U54C G73A A75G, the self-cleavage was 0.21. For G16U A28G C81U, the self-cleavage was 0.19. Work on G16A U31C A45G U80C yielded a self-cleavage of 0.31. In the case of G16U A57G A64U C71U, the self-cleavage is reported as 0.07. Variant G16A U25C U51C has a self-cleavage of 0.17. A15U U41C A45G U51A A65U gave a self-cleavage of 0.12. G16A A18G U31C A57G U74C U78A showed a self-cleavage of 0.26. With A15U G70C U72A the self-cleavage was 0.06. Work on C17A U51C A64G yielded a self-cleavage of 0.16. G16A U58C G73A gave a self-cleavage of 0.1. Variant A15U U60C A64U U72C has a self-cleavage of 0.11. A15U U51C A64U showed a self-cleavage of 0.41. Variant A15U G42A U51C U58G has a self-cleavage of 0.16. Variant A15U U31C U43G has a self-cleavage of 0.06. A15U U31C U43C showed a self-cleavage of 0.27. A15U G63C U72C A77U showed a self-cleavage of 0.81. Variant A15U U51A A56G C62U U72C U80A has a self-cleavage of 0.15. A15U U51A U72C showed a self-cleavage of 1.08. For A15U G19A U41C, the self-cleavage was 0.12. With G16A A20G U54A the self-cleavage was 0.25. In the case of A15U U31A A35U G42A U43C A45U, the self-cleavage is reported as 0.1. A15U U49C U60A showed a self-cleavage of 0.12. Work on G16U A21G C38A yielded a self-cleavage of 0.45. A15U C37U U41A showed a self-cleavage of 0.15. C17G A18G A21G U31C U51A gave a self-cleavage of 0. In the case of A15U G22U G33U U74C, the self-cleavage is reported as 0.17. G16A A20U A35G showed a self-cleavage of 0.2. With G16C U58C U72C the self-cleavage was 0.25. With A15U G52U U72A the self-cleavage was 1.07. Variant A15U U26C C32A U58A has a self-cleavage of 0.12. G16A C32U C39U gave a self-cleavage of 0.07. Work on C17G U51A A64U yielded a self-cleavage of 0.37. For A15U G22U U69C, the self-cleavage was 0.08. Variant A15U U49C U69A U76C has a self-cleavage of 0.09. With A15U U48C U60C A64G U69C the self-cleavage was 0.07. A15U U31C U51A A65G showed a self-cleavage of 0.09. Variant A15U U26C A28C U43C U49A has a self-cleavage of 0.05. Variant A15U U49G U74G has a self-cleavage of 0.16. In the case of A15U U41C U54G, the self-cleavage is reported as 1.09. Work on A15U G36U C40U A45C A65G U72C U80C yielded a self-cleavage of 0. Variant G16A A47G U72A has a self-cleavage of 0.18. In the case of G16C C32A C44A U66A A77G, the self-cleavage is reported as 0.1. Work on G16A C27U A28U A56G A65G yielded a self-cleavage of 0.14. Variant C17A G30C A56G U76C has a self-cleavage of 0.25. With G16A U25C U43C U74A A77G the self-cleavage was 0.21. For A15U U67C U72A, the self-cleavage was 0.12. For G16C U60A U66C G73C, the self-cleavage was 0.07. For A15U U25C A35U A47U A56U, the self-cleavage was 0.17. With G16U U41A U54A U67C the self-cleavage was 0.06. Work on G16U U25A U41A A45U U72A yielded a self-cleavage of 0.12. C17G A18U U80C showed a self-cleavage of 0.14. For G16A U25C A57U U78A U80C C81U, the self-cleavage was 0.08. For A15U G46U U54A, the self-cleavage was 0.22. A15U U60G U67A gave a self-cleavage of 0.12. G16A C32U U60A C62A showed a self-cleavage of 0.06. Variant A15U U72C U76A has a self-cleavage of 0.58. With A15U U41C U51C A64G the self-cleavage was 0.39. G16U A77U U78C gave a self-cleavage of 0.33. A15U G55U U60C gave a self-cleavage of 0.14. C17A C23U U25C U26C gave a self-cleavage of 0.16. With A15U U31C A64G U78C the self-cleavage was 0.18. G16U G52U A57G gave a self-cleavage of 0.32. For G16C A20U U25A C37G, the self-cleavage was 0.13. With A15U U26C U54C U60A U66C the self-cleavage was 0.1. Variant A15U G61A A65G U72A has a self-cleavage of 0.13. Work on A15U U26C U58C yielded a self-cleavage of 0.21. G16A G22C A45G U60C showed a self-cleavage of 0.15. A15U U26G C40U A65U gave a self-cleavage of 0.53. With C17G A20G U26C U49C A57G U58C the self-cleavage was 0.33. With G16U U25A A28U the self-cleavage was 0.26. Variant A15U U25C U43A has a self-cleavage of 0.16. C17G A35G U58C A75G U78C gave a self-cleavage of 0.35. G16A U25C U26A U80C gave a self-cleavage of 0.07. For A15U U26G U49G U51G U69A U74C, the self-cleavage was 0.08. Work on G16U A20U U48C U78A yielded a self-cleavage of 0.5. Variant C17G C37U U43A U78C has a self-cleavage of 0.34. Work on A15U U60C U69C U72A yielded a self-cleavage of 0.15. Variant A15U U54C A65G U80A has a self-cleavage of 0.18. A15U U60C U74A showed a self-cleavage of 0.13. In the case of G16A A56G U58C, the self-cleavage is reported as 0.09. A15U U31G A35U A47U A57U G73A showed a self-cleavage of 0.19. A15U U26A A47C A56C showed a self-cleavage of 0.08. For G16C U31G A45C U54C A75G, the self-cleavage was 0.06. Work on G16A U25C A45U U66C U80C yielded a self-cleavage of 0.17. Work on G16U A21U A64U U76C yielded a self-cleavage of 0.06. In the case of A15U G30C A35U U41A, the self-cleavage is reported as 0.06. Work on A15U U41C U69C yielded a self-cleavage of 0.68. With A15U U25C U60A U72C U78C the self-cleavage was 0.08. Work on A15U G52A U78A yielded a self-cleavage of 0.75.
